# Laboratory results from PubChem BioAssay AID1347120 (National Center for Advancing Translational Sciences (NCATS), 2019).
# The campaign covered roughly 390,000 compounds. About 930 (0.24%) were called active. Inconclusive means that the source gave no clear call. Such entries were picked first, then a sample of the others. The call rests on the fitted dose curve; in most records, active means well fitted activation curve with a large enough effect; inconclusive means small, poorly fitted or top-dose-only effect; inactive means no such curve, though single readings can be large or run the other way. Potencies beside an inconclusive call are fits to weak or partial responses and may not hold up.
# Assay: qHTS for Suppressors of FUS Proteinopathy: Primary screen using FUS-linked yeast assay; further: nearly all actives have a fitted effect of over 55% in size;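 on growth rescue (activation): plate controls were DMSO vehicle for no effect and reference control for full effect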
# Conditions: S. cerevisiae FUS-expressing, OD600, 24 h; Potency: growth rescue; growth rescue (activation): at 76.6 µM (top of the series)
# In short: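 Steps: raffinose overnight preculture; dilution to OD 0.005 in 2% galactose minimal medium; compound addition (concentration series); 24hr at 30C, 99% humidity; absorbance read at 600 nm.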
# Potency means the concentration at half of the fitted maximal effect; tags describe the fitted curve by direction and shape.
Compound,growth rescue (activation),Potency
Cc1cc(C)c(C)c(S(=O)(=O)NCc2ccc(C(=O)NCC3CCCO3)cc2)c1C (stereo not drawn),inconclusive: -54.6% [activator],
COC(=O)C1CN(Cc2ccc(C)cc2)CCS(=O)(=O)N1Cc1cn(Cc2ccc(Cl)cc2)nn1 (stereo not drawn),,"inconclusive: 28.2 µM [activator, single point]"
Cc1cc(C)c(S(=O)(=O)Nc2ccc(-c3ccc(N4CCCCC4)nn3)cc2)cc1C,,"inconclusive: 25.1 µM [activator, partial curve, poor fit]"
CCCCCCCCCCCCCCCC[n+]1ccc(/C=N/O)cc1,,"inconclusive: 31.6 µM [activator, single point]"
O=C(Nc1c(O)c2ccccc2oc1=O)c1ccccc1Cl,inactive: 6.33%,
Cc1ccc(CSc2nc3cccnc3n2Cc2nc(-c3ccccc3F)oc2C)cc1,,"inconclusive: 31.6 µM [activator, single point]"
CC(C)CN1C(=O)C[C@@]2(C(=O)N(C)c3ccc(NS(=O)(=O)C4CC4)cc32)C1c1ccccc1 (stereo partly drawn),inactive: 2.52%,
CC(C)CC(=O)NC(=S)Nc1cccc(NC(=O)c2ccccc2Cl)c1,,"inconclusive: 50.1 µM [activator, single point]"
O=C(NC1CCN(Cc2ccccc2)CC1)C1CCN(S(=O)(=O)c2cccc([N+](=O)[O-])c2)CC1,inactive: 17.3%,
O=C(NC1CC(=O)N(c2ccc(F)cc2)C1)C(c1ccccc1)c1ccccc1 (stereo not drawn),inactive: 36.3%,
Cc1ccc(Cn2c(Cc3ccccc3)nc3ccccc32)cc1,,inactive
O=C(Nc1cccc(-c2nc3ccccc3[nH]2)c1)c1cccc(NC(=O)c2ccco2)c1,,"inconclusive: 6.31 µM [activator, full curve]"
CCOc1ccc(CN2C(=O)c3ccccc3Sc3ccc(C(=O)NC4CCC(C)CC4)cc32)cc1 (stereo not drawn),,"inconclusive: 35.5 µM [activator, partial curve, poor fit]"
O=C(CCNC(=O)c1ccc(Br)cc1)Nc1cccc(S(=O)(=O)N2CCCC2)c1,,"inconclusive: 22.4 µM [activator, partial curve, poor fit]"
COc1ccc(C(CC(=O)N2CCCCC2)c2c(OC)cc(OC)c3c(-c4ccccc4)cc(=O)oc23)cc1 (stereo not drawn),,"inconclusive: 28.2 µM [activator, single point]"
O=C(CC1CCCC1)N1CC[C@H]2[C@H](CCCN2Cc2ccccc2)C1,inactive: -6.88%,
CCOCC(=O)Nc1cccc(Br)c1,,"inconclusive: 0.891 µM [activator, full curve, poor fit]"
CCn1cc(/C=N\NC(=O)c2ccc3c(c2)c(C)c(C)n3Cc2ccccc2)c(C)n1,,"inconclusive: 17.8 µM [activator, partial curve, poor fit]"
Clc1ccc(-c2n[nH]c3c2CCC3)c(Cl)c1,,"inconclusive: 11.2 µM [activator, partial curve, poor fit]"
Cc1ccc(NC(=O)CN2C(=O)c3ccccc3Sc3ncccc32)c(C)c1,,"inconclusive: 50.1 µM [activator, single point]"
Cc1ccccc1CN1C(=O)c2ccccc2Sc2ccc(C(=O)NCCCN3CCOCC3)cc21,,"inconclusive: 12.6 µM [activator, partial curve]"

Compound,growth rescue (activation),Potency
COc1cccc(C(C(=O)NCc2ccco2)N(Cc2ccco2)C(=O)Cn2nnc3ccccc32)c1 (stereo not drawn),inactive: 5.37%,
O=C(CCCCCN1C(=O)C2C3C=CC(C3)C2C1=O)Nc1cc(F)cc(F)c1 (stereo not drawn),inactive: 6.3%,
Cc1ccc2cc(C#N)c(SCC(=O)NNC(=O)Cc3ccccc3)nc2c1,inactive: 5.4%,
CCC(C)(C)NC(=O)C(c1ccc(C)cc1)N(CC1CCCO1)C(=O)CCC(=O)Nc1ccccn1 (stereo not drawn),inactive: 21.3%,
CC(C)(C)OC(=O)NCc1ccc(CNC(=O)c2[nH]cnc2C(=O)N[C@@H](Cc2ccccc2)C(=O)OCc2ccccc2)cc1,,"inconclusive: 12.6 µM [activator, partial curve]"
Cc1ccc(C(=O)N/C(=C\c2ccco2)C(=O)NCCc2c[nH]c3ccccc23)cc1,,"inconclusive: 39.8 µM [activator, single point]"
COc1ccc(OC)c(CNc2ncc(-c3ccc(Cl)cc3)n2C)c1,inactive: -7.2%,
CC(NC(=O)CSc1nc2c(cc1C#N)CN(C)CC2)c1ccccc1 (stereo not drawn),,"inconclusive: 28.2 µM [activator, single point]"
O=C(CN1CCN(S(=O)(=O)c2cccs2)CC1)NCC1CCCCC1,inactive: -7.92%,
Cc1ccc(/C=c2\s/c(=C(/C#N)C(=O)N3CCCC3)n(Cc3ccco3)c2=O)s1,,"inconclusive: 14.1 µM [activator, partial curve]"
CCN(CC(=O)NCc1ccc(Cl)cc1)C(=O)CCOc1ccc(C)cc1,,"inconclusive: 20 µM [activator, single point]"
CN(C)/C=N/C(=S)Nc1ccc(F)cc1,inactive: 6.68%,
COc1cc(NS(=O)(=O)c2ccc(Nc3nc(-c4ccccc4)cs3)cc2)nc(OC)n1,,"inconclusive: 17.8 µM [activator, partial curve, poor fit]"
Cc1nn(-c2ccc(N3CCCCC3)nn2)c(C)c1CCC(=O)Nc1cccc(F)c1,,"inconclusive: 28.2 µM [activator, partial curve]"
COC(=O)[C@H](CC1(c2cn(S(=O)(=O)CC[Si](C)(C)C)c3ccccc23)C(=O)Nc2ccccc21)NC(=O)OC(C)(C)C (stereo partly drawn),,"inconclusive: 15.8 µM [activator, partial curve]"
Cc1ccn2c(=O)c(NC(=O)c3cccc([N+](=O)[O-])c3C)c(C)nc2c1,inactive: -11.2%,
CCCC1=Nc2cc(C(=O)NCCN3CCCC3)ccc2Sc2ccccc21,,"inconclusive: 5.62 µM [activator, full curve]"
CC1(C(=O)Nc2ccc(Cl)c(C(F)(F)F)c2)Cc2c(-c3ccccc3)ccnc2O1 (stereo not drawn),inactive: 36.4%,
CC(NC(C)c1ccccc1Cl)C(=O)Nc1cccc(S(=O)(=O)N2CCCCC2)c1 (stereo not drawn),inactive: -5.61%,
COc1cccc(C2c3[nH]c4ccccc4c3CCN2C(=O)c2ccccc2F)c1OC (stereo not drawn),,"inconclusive: 31.6 µM [activator, partial curve, poor fit]"
CC(=O)c1cccc(NC(=O)c2ccccc2N(C)S(=O)(=O)c2ccc(C)cc2)c1,inactive: 4.94%,

Compound,growth rescue (activation),Potency
CCc1ccc(S(=O)(=O)Nc2ccc3oc(C)c(C(=O)OCCOC)c3c2)cc1,,"inconclusive: 50.1 µM [activator, single point]"
Cc1ccc2nc(NC(=O)C(NS(=O)(=O)c3cccc4nsnc34)C(C)C)sc2c1 (stereo not drawn),,"inconclusive: 50.1 µM [activator, single point]"
CCOC(=O)C1=NN(C(=O)Nc2cccc(C(F)(F)F)c2)C2C(=O)N(c3cccc(C(F)(F)F)c3)C(=O)C12 (stereo not drawn),,"inconclusive: 50.1 µM [activator, partial curve, poor fit]"
O=C(c1ccc(Cl)c(S(=O)(=O)N2CCCC2)c1)N1CCN(c2ccc(F)cc2)CC1,inactive: 34.9%,
COc1ccc(C(=O)NC(=S)Nc2ccc(S(=O)(=O)Nc3cc(C)on3)cc2)cc1OC,,"inconclusive: 50.1 µM [activator, single point]"
Cc1cc(C(=O)CN2C(=O)NC(Cc3c[nH]c4ccccc34)C2=O)c(C)n1C (stereo not drawn),,"inconclusive: 15.8 µM [activator, partial curve, poor fit]"
CCC(C)NS(=O)(=O)c1ccc(S(=O)(=O)N(CC(=O)Nc2ccccc2)Cc2ccco2)cc1 (stereo not drawn),inactive: -5.35%,
CS(=O)(=O)c1ccc2nc(NC(=O)c3ccc(N4C(=O)CCC4=O)cc3)sc2c1,,"inconclusive: 44.7 µM [activator, single point]"
COC(=O)Cn1c(SCCOc2ccccc2Cl)nc2ccccc21,inactive: 34.9%,
COc1ccc(-c2oc3ncnc(NCCCO)c3c2-c2ccc(OC)cc2)cc1,,"inconclusive: 39.8 µM [activator, single point]"
CCOP(=O)(c1ccccc1)C1(C#N)CCCC1 (stereo not drawn),,"inconclusive: 0.891 µM [activator, full curve, poor fit]"
Cc1nn(C)cc1C1C(C#N)=C(N)N(c2ccc(F)c([N+](=O)[O-])c2)C2=C1C(=O)CCC2 (stereo not drawn),,"inconclusive: 17.8 µM [activator, partial curve, poor fit]"
Cc1cccc(Oc2ccc(S(=O)(=O)N3CCCCC3)cc2NC(=O)C2=COCCO2)c1,,active: 28.2 µM
Cc1cc(/C=C2\SC(=Nc3ccccc3)NC2=O)c(C)n1-c1ccc(S(N)(=O)=O)cc1,,"inconclusive: 28.2 µM [activator, single point]"
COCCNc1nc(-c2ccc(OC)cc2C)c2sc(-c3ccccc3)cc2n1,,"inconclusive: 31.6 µM [activator, single point]"
CCn1c2ccccc2c2cc(NC(=O)COC(=O)c3cc(Cl)cc(Cl)c3)ccc21,inactive: -1.68%,
CC1CCCN(C(=O)Cc2cn(Cc3cccc(Cl)c3)c3ccccc23)C1 (stereo not drawn),,"inconclusive: 39.8 µM [activator, single point]"
COc1ccc(N2C(=O)N3[C@H](c4ccc(Cl)cc4)[C@@H]4C(=O)N(C5CCCCC5)C(=O)[C@@H]4[C@]3(Cc3ccc(Cl)cc3)C2=O)cc1,,"inconclusive: 28.2 µM [activator, single point]"
CC(=O)c1c(C)[nH]c(C(=O)OCc2csc(CC(=O)Nc3ccccc3C)n2)c1C,inactive: 30%,
CCCOc1ccc(F)cc1-c1cc(C(=O)NC2CCCCC2)[nH]n1,,"inconclusive: 14.1 µM [activator, partial curve]"
COc1ccc(N(CC(=O)Nc2cc(Cl)ccc2OC)S(=O)(=O)c2c(C)[nH]c(=O)[nH]c2=O)cc1,,"inconclusive: 35.5 µM [activator, partial curve, poor fit]"
